# Measured values published in the supplement of paper PMC8728848.
# This is one part of the list.
# B1: PNA (Arachis hypogaea), P02872 (protein)
# chain: MKPFCVFLTFFLLLAASSKKVDSAETVSFNFNSFSEGNPAINFQGDVTVLSNGNIQLTNLNKVNSVGRVLYAMPVRIWSSATGNVASFLTSFSFEMKDIKDYDPADGIIFFIAPEDTQIPAGSIGGGTLGVSDTKGAGHFVGVEFDTYSNSEYNDPPTDHVGIDVNSVDSVKTVPWNSVSGAVVKVTVIYDSSTKTLSVAVTNDNGDITTIAQVVDLKAKLPERVKFGFSASGSLGGRQIHLIRSWSFTSTLITTTRRSIDNNEKKIMNMASA
# Tests used:
# Test in all cases: glycan array binding signal (z-score within array); higher = stronger binding
# Details in all cases: glycan notation: IUPAC condensed, linker removed
# [1] = target: GlcNAc(b1-4)GlcNAc(b1-4)GlcNAc(b1-4)GlcNAc(b1-4)GlcNAc
# In short: (§1)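 Glycan array binding is given as a within-array Z-score, which can be read as non-binding when negative. The arrays, 3228 of them, came from the Consortium for Functional Glycomics database and were retained only where the protein sequence was available. Z-scores were averaged across arrays of the same protein sequence at different concentrations or buffers and across linkers.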
# [2] = target: GlcNAc(b1-4)GlcNAc(b1-4)GlcNAc(b1-4)GlcNAc(b1-4)GlcNAc(b1-4)GlcNAc
# In short: as §1
# [3] = target: GlcNAc(b1-4)GlcNAc(b1-4)GlcNAc(b1-4)GlcNAc(b1-4)GlcNAc(b1-4)GlcNAc(b1-4)GlcNAc
# In short: as §1
# [4] = target: GlcNAc(b1-4)GlcNAc(b1-4)GlcNAc(b1-4)GlcNAc(b1-4)GlcNAc(b1-4)GlcNAc(b1-4)GlcNAc(b1-4)GlcNAc
# In short: as §1
# [5] = target: GlcNAc(b1-4)[GlcNAc(b1-6)]GalNAc
# In short: as §1
# [6] = target: GlcNAc(b1-6)Gal(b1-4)GlcNAc
# In short: as §1
# GlcNAc(b1-6)GalNAc = target: GlcNAc(b1-6)GalNAc
# In short: as §1
# GlcNAc3Prop(b1-4)GlcNAc = target: GlcNAc3Prop(b1-4)GlcNAc
# In short: as §1
# [7] = target: GlcNAc6S(b1-3)Gal(b1-4)GlcNAc
# In short: as §1
# [8] = target: HexA(a1-3)GalNAc4S(b1-4)GlcA(b1-3)GalNAc4S
# In short: as §1
# [9] = target: HexA(a1-3)GalNAc4S(b1-4)GlcA(b1-3)GalNAc4S(b1-4)GlcA(b1-3)GalNAc4S(b1-4)GlcA(b1-3)GalNAc4S(b1-4)GlcA(b1-3)GalNAc4S(b1-4)GlcA(b1-3)GalNAc4S(b1-4)GlcA(b1-3)GalNAc4S
# In short: as §1
# [10] = target: HexA(a1-3)GalNAc4S(b1-4)IdoA(a1-3)GalNAc4S
# In short: as §1
# [11] = target: HexA(a1-3)GalNAc4S(b1-4)IdoA(a1-3)GalNAc4S(b1-4)IdoA(a1-3)GalNAc4S(b1-4)IdoA(a1-3)GalNAc4S(b1-4)IdoA(a1-3)GalNAc4S(b1-4)IdoA(a1-3)GalNAc4S(b1-4)IdoA(a1-3)GalNAc4S
# In short: as §1
# [12] = target: HexA(a1-3)GalNAc6S(b1-4)GlcA(b1-3)GalNAc6S
# In short: as §1
# [13] = target: HexA(a1-3)GalNAc6S(b1-4)GlcA(b1-3)GalNAc6S(b1-4)GlcA(b1-3)GalNAc6S(b1-4)GlcA(b1-3)GalNAc6S(b1-4)GlcA(b1-3)GalNAc6S(b1-4)GlcA(b1-3)GalNAc6S(b1-4)GlcA(b1-3)GalNAc6S
# In short: as §1
# HexA2S(a1-4)GlcNS6S = target: HexA2S(a1-4)GlcNS6S
# In short: as §1
# [14] = target: HexA6S(a1-4)GlcNS6S(a1-4)IdoA2S(a1-4)GlcNS6S
# In short: as §1
# [15] = target: HexA6S(a1-4)GlcNS6S(a1-4)IdoA2S(a1-4)GlcNS6S(a1-4)IdoA2S(a1-4)GlcNS6S(a1-4)IdoA2S(a1-4)GlcNS6S(a1-4)IdoA2S(a1-4)GlcNS6S(a1-4)IdoA2S(a1-4)GlcNS6S(a1-4)IdoA2S(a1-4)GlcNS6S
# In short: as §1
# Kdn(a2-3)Gal(b1-3)GalNAc = target: Kdn(a2-3)Gal(b1-3)GalNAc
# In short: as §1
# [16] = target: Kdn(a2-3)Gal(b1-3)GalNAc(b1-4)[Kdn(a2-3)]Gal(b1-4)Glc
# In short: as §1
# Kdn(a2-3)Gal(b1-3)GlcNAc = target: Kdn(a2-3)Gal(b1-3)GlcNAc
# In short: as §1
# [17] = target: Kdn(a2-3)Gal(b1-3)GlcNAc(b1-3)Gal(b1-4)Glc
# In short: as §1
# Kdn(a2-3)Gal(b1-4)Glc = target: Kdn(a2-3)Gal(b1-4)Glc
# In short: as §1
# Kdn(a2-3)Gal(b1-4)GlcNAc = target: Kdn(a2-3)Gal(b1-4)GlcNAc
# In short: as §1
# [18] = target: Kdn(a2-3)Gal(b1-4)[Fuc(a1-3)]GlcNAc
# In short: as §1
# [19] = target: Kdn(a2-3)Gal(b1-4)[Fuc(a1-3)]GlcNAc(b1-3)Gal
# In short: as §1
# [20] = target: Kdn(a2-3)Gal(b1-4)[Fuc(a1-3)]GlcNAc(b1-3)Gal(b1-4)Glc
# In short: as §1
# [21] = target: Kdn(a2-3)Gal(b1-4)[Rha(a1-3)]GlcNAc(b1-3)Gal(b1-4)Glc
# In short: as §1
# [22] = target: Kdn(a2-3)[GalNAc(b1-4)]Gal(b1-4)Glc
# In short: as §1
# Kdn(a2-6)Gal = target: Kdn(a2-6)Gal
# In short: as §1
# Kdn(a2-6)Gal(b1-4)GlcNAc = target: Kdn(a2-6)Gal(b1-4)GlcNAc
# In short: as §1
# Man(a1-2)Man = target: Man(a1-2)Man
# In short: as §1
# [23] = target: Man(a1-2)Man(a1-2)Man(a1-3)Man
# In short: as §1
# [24] = target: Man(a1-2)Man(a1-2)Man(a1-3)[Man(a1-2)Man(a1-3)[Man(a1-2)Man(a1-6)]Man(a1-6)]Man(b1-4)GlcNAc(b1-4)GlcNAc
# In short: as §1
# [25] = target: Man(a1-2)Man(a1-2)Man(a1-3)[Man(a1-2)Man(a1-6)[Man(a1-3)]Man(a1-6)]Man(b1-4)GlcNAc(b1-4)GlcNAc
# In short: as §1
# [26] = target: Man(a1-2)Man(a1-2)Man(a1-3)[Man(a1-3)[Man(a1-6)]Man(a1-6)]Man(b1-4)GlcNAc(b1-4)GlcNAc
# In short: as §1
# [27] = target: Man(a1-2)Man(a1-2)Man(a1-6)[Man(a1-3)]Man
# In short: as §1
binder,measurement,setting,value
B1,glycan array binding signal (z-score),[1],0.085
same,glycan array binding signal (z-score),[2],0.099
same,glycan array binding signal (z-score),[3],-0.195
same,glycan array binding signal (z-score),[4],-0.195
same,glycan array binding signal (z-score),[5],-0.177
same,glycan array binding signal (z-score),[6],-0.204
same,glycan array binding signal (z-score),GlcNAc(b1-6)GalNAc,-0.208
same,glycan array binding signal (z-score),GlcNAc3Prop(b1-4)GlcNAc,-0.125
same,glycan array binding signal (z-score),[7],-0.159
same,glycan array binding signal (z-score),[8],-0.195
same,glycan array binding signal (z-score),[9],-0.195
same,glycan array binding signal (z-score),[10],-0.195
same,glycan array binding signal (z-score),[11],-0.195
same,glycan array binding signal (z-score),[12],-0.195
same,glycan array binding signal (z-score),[13],-0.195
same,glycan array binding signal (z-score),HexA2S(a1-4)GlcNS6S,-0.195
same,glycan array binding signal (z-score),[14],-0.195
same,glycan array binding signal (z-score),[15],-0.195
same,glycan array binding signal (z-score),Kdn(a2-3)Gal(b1-3)GalNAc,-0.14
same,glycan array binding signal (z-score),[16],-0.195
same,glycan array binding signal (z-score),Kdn(a2-3)Gal(b1-3)GlcNAc,-0.26
same,glycan array binding signal (z-score),[17],-0.195
same,glycan array binding signal (z-score),Kdn(a2-3)Gal(b1-4)Glc,-0.178
same,glycan array binding signal (z-score),Kdn(a2-3)Gal(b1-4)GlcNAc,-0.187
same,glycan array binding signal (z-score),[18],-0.119
same,glycan array binding signal (z-score),[19],-0.195
same,glycan array binding signal (z-score),[20],-0.195
same,glycan array binding signal (z-score),[21],-0.195
same,glycan array binding signal (z-score),[22],-0.195
same,glycan array binding signal (z-score),Kdn(a2-6)Gal,-0.195
same,glycan array binding signal (z-score),Kdn(a2-6)Gal(b1-4)GlcNAc,-0.203
same,glycan array binding signal (z-score),Man(a1-2)Man,-0.195
same,glycan array binding signal (z-score),[23],-0.184
same,glycan array binding signal (z-score),[24],-0.195
same,glycan array binding signal (z-score),[25],-0.195
same,glycan array binding signal (z-score),[26],-0.195
same,glycan array binding signal (z-score),[27],-0.14
